This is an account of results in the RNAGym collection of RNA variant scans (doi:10.1093/nar/gkz1192).

The source gives no read counts; variants with many changes may rest on few reads.

B1: CPEB3 Ribozyme (parent)
chain: UAACAGGGGGCCACAGCAGAAGCGUUCACGUCGCAGCCCCUGUCAGAUUCUGGUGAAUCUGCGAAUUCUGCUGUAUAUCUC

Variants of B1 are the subject of the data set. Kind of data set: self-cleavage, relative activity (ratio to wild type); higher = more cleavage; in vitro, sequencing. The gist of the method: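 After error-prone PCR and barcoding, CPEB3 ribozyme mutant libraries were transcribed with T7 RNA polymerase at 37°C for 5 hours, then given 15 min with DNase I before an EDTA stop, and they cleaved during both steps. Reverse transcription with template switching preceded Illumina sequencing. Relative activity divides a variant's cleaved/total read fraction by the unmutated ribozyme's. At least 5 reads were required per variant, and three batches were averaged.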
As to UAACAGGGGGCCACAGCAGAGGCGCUCACGUCGCAGCACCUGUCAGAUUCUGGUGAAUCUGCGAAUUCUGAUGUAUAUCUC [A21G U25C C38A C71A], the self-cleavage amounted to 0.04.
For UAACAGGGGGCCACAGCAGAGGCGUACACGUCGCAGCCCCUGUCGGAUUCUGGUGAAUCUGCGAAUUCUGCUGUAUAUCUC [A21G U26A A45G], the self-cleavage came to 0.23.
Turning to UAACAGGGGGCCACAGCAGAGGCGCUCACGUCGCAGCCCCUGCCAGAUUCAGGUGAAUCUGCGAACUCUGCUGUAUAUCUC [A21G U25C U43C U51A U66C], the self-cleavage was found to be 0.21.
Under UAACAGGGGGCCACAGCAGAGGCGCUCACGUCGCAGCCCCUGUCAGAUUCCGGAGAGUCUGCGAAUUCUGCUGUAUAUAUC [A21G U25C U51C U54A A57G C79A] stands 0.04; under UAACAGGGGGCCACAGCAGAGGCGGUCACGCCGCAGCCCCUGUCAGAUUCUGGAGAAUCUGCGAAUUCUGCUGUAUACCUC [A21G U25G U31C U54A U78C], 0.05; under UAACAGGGGGCCACAGCAGAGGCGCUCACGUCGCAGCGCCUGUCAGGUUCUGGUGAAUCUGCGGAUUCUGCUGUAUUUCUC [A21G U25C C38G A47G A64G A77U], 0.04.
In the case of UAACAGGGGGCCACAGCAGAGGCGCUCACGCCACAGCCCCUGUCAGAUUCUGGUGAAACUGCGAAUUCUGCUGUAUAUCUC [A21G U25C U31C G33A U58A], the self-cleavage turned out to be 0.04.
For UAACAGGGGGCCACAGCAGAGGCGCUCACGUCGCAGCCCCUGUCAGAUUCUGGAGAAUCUGCGAAUUCUGCCGUAUAUCUC [A21G U25C U54A U72C], the self-cleavage came out at 0.31.
Under UAACAGGGGGCCACAGCAGAGGCGUACACGUCGCAGCCCCUGUCAGAUUCUGGUGAGUCAGCGAAUUCUGCUGUAUAUCUC [A21G U26A A57G U60A] stands 0.18; under UAACAGGGGGCCACAGCAGAGGCGUACACGCCGCAGCCCCUGUCAGAUUCUGGUGAAUCUGCGAAUUCUGCUGUAUAUCUC [A21G U26A U31C], 0.14; under UAACAGGGGGCCACAGCAGAGGCGUACACGUCGCAGCCCCUGUCAGAUUCUGGUUAAUCUGCGAAUUCUGCUGUAUACCUC [A21G U26A G55U U78C], 0.24.
Under UAACAGGGGGCCACAGCAGAGGCGUCCACGUCGCAGCCCCCGUCAGAUUCUGGCGAAUCUGCGAAUUCUGCUGUAUAUCUC [A21G U26C U41C U54C] stands 0.27; under UAACAGGGGGCCACAGCAGAGGCGUCCACGUCGCAGCCCCUGUCAGAUUCUGGUGAUUCUGCGAAUUCUGCUGUAUAUCUC [A21G U26C A57U], 0.42; under UAACAGGGGGCCACAGCAGAGGCGCUCACGUCGCAGCCCCUGUCAGAUUCUGGUGAAUCUGCAGAUUCUGCUGUAUAUCUC [A21G U25C G63A A64G], 0.08.
UAACAGGGGGCCACAGCAGAGGCGUACACGUCGCUGCCCCCGUCAGAUUCUGGUGAAUCUGCGAAUUCUGCUGCAUAUCUC [A21G U26A A35U U41C U74C]: the self-cleavage was 0.34.
As to UAACAGGGGGCCACAGCAGAGGCGCUCACGUCGCAGCCCAUGUCAGAUUCAGGUGAAUCUGUGAAUUCUGCUGUAUAUCUC [A21G U25C C40A U51A C62U], the self-cleavage was found to be 0.11.
For UAACAGGGGGCCACAGCAGAGGCGUCCACGUCACAGCCCCUGUCAGAUUCUGGUGAAUCUGCGAAUUCUGCUGUAAAUCUC [A21G U26C G33A U76A] the value was 0.1.
Under UAACAGGGGGCCACAGCAGAGGCGCUCACGUCGCAGCCCCUGUCAGAUUCUGGAGAAUCUGCGGGUUCUGCUGUAUAUCUC [A21G U25C U54A A64G A65G] stands 0.06.
Consider UAACAGGGGGCCACAGCAGAGGCGUACACGUCGCAGCCCCUGUCAGAUUCUGGUGAAUCCGCGAAUUCUGCUGUAUAUCUC [A21G U26A U60C], for which the self-cleavage stood at 0.19.
Regarding UAACAGGGGGCCACAGCAGAGGCGCCCACGUCGCAGCCCCUGUCAGAUUCUGGUGAAUCUGCGAAUUCUGCUGAAUGUCUC [A21G U25C U26C U74A A77G], the self-cleavage was 0.29.
For the variant UAACAGGGGGCCACAGCAGAGGCGUACACGUCGCAGCCCCUGUCAGAUUCUGGUGAAUCCGCGAAUUCUGCUGUAUAUCAC [A21G U26A U60C U80A], the self-cleavage worked out at 0.26.
On to UAACAGGGGGCCACAGCAGAGGCGUCCGCGUCGCGGCCCCUGUCAGAUUAUGGUGAAUCUGCGAAUUCUGCUGUAUAUCCC [A21G U26C A28G A35G C50A U80C], for which the self-cleavage amounted to 0.64.
UAACAGGGGGCCACAGCAGAGGCGUCCACGUCGCAGCCCCUGUCAGAUUCUGGUAAAUCUGCGAAUUCUGCUGUAUAUCUC [A21G U26C G55A]: the self-cleavage was 0.27.
Take UAACAGGGGGCCACAGCAGAGGCGUCCACGUCGCAGCCCCUGUCAGGUUCUGGUGAAUCUGCGAAUUCUGCUGUAUAUCAC [A21G U26C A47G U80A]: the self-cleavage was determined as 0.33.
Under UAACAGGGGGCCACAGCAGAGGCGCUCACGUCGCAGCCCCAGUCAGAUUCUGGUGAAUCUGCGAAUUCUGCUGUAUAUCUC [A21G U25C U41A] stands 0.09.
As for UAACAGGGGGCCACAGCAGAGGCGUACGCUUCGCAGCCCCUGUCAGAUUCUGGUGAAUCUGCGAAUUCAGCUGUAUAUCUC [A21G U26A A28G G30U U69A], the self-cleavage was found to be 0.01.
Take UAACAGGGGGCCACAGCAGAGGCGCUCACGUCGCAGCCCCUGUCAGAUUCUGGUGAAUCUGAGAAUUCUGCUGUAUAUCUC [A21G U25C C62A]: the self-cleavage was determined as 0.07.
As for UAACAGGGGGCCACAGCAGAGGCGUACACGUCGCAGCCCCUGUCAGUUUCUGGUGAAUCUGCGAAUUCUGCUGUAUAUCUC [A21G U26A A47U], the self-cleavage amounted to 0.09.
Under UAACAGGGGGCCACAGCAGAGGCGUACACGUCGCAGCCCCUGUCAGAUUCUGGCGAAUCUGCGAAUUCUGCUGUAUAUCUU [A21G U26A U54C C81U] stands 0.62; under UAACAGGGGGCCACAGCAGAGGCGCACACGUCGCAGCCCCUGUCAGGUUCUGGUGCAUCUGCGAUUUCUGCUGUAUAUCCC [A21G U25C U26A A47G A56C A65U U80C], 0.09; under UAACAGGGGGCCACAGCAGAGGCGCCCACGUCGCGGCCCCUGUCAGAUACUGGUGAAUCUGCGAAUCCUGCUGUAUAUCUC [A21G U25C U26C A35G U49A U67C], 0.02.
UAACAGGGGGCCACAGCAGAGGCGUCCACGUCGCAGCCCCUGUCAGACUCUGGUGUAUCUGCGAAUUCUGCUGUAUAUCUC [A21G U26C U48C A56U]: the self-cleavage was determined as 0.07.
For the variant UAACAGGGGGCCACAGCAGAGGCGUCCACGUCGCAGCCCCUGUCAGAUUCUGGUGAAUCUGCGAAUUCAGCUGUAUAUCUC [A21G U26C U69A], the self-cleavage was found to be 0.2.
Take UAACAGGGGGCCACAGCAGAGGCGCUCACGUCGUAGCCCCUGUCAGACUCUGGUGAAUCUGCGAACUCUGCUGUAUAUCUC [A21G U25C C34U U48C U66C]: the self-cleavage is 0.13.
